From publication PMC6765112, “Specificity of MYB interactions relies on motifs in ordered and disordered contexts” (Nucleic Acids Research, 2019)
Residue numbers refer to the chain shown, from its start. Numbers in names are those of the source. These are yes or no findings as the source states them, for the method shown. Binding seen in cells or lysates may run through a third protein. Some results given as binding are weak or reduced against the parent protein; the word gives no strength.

Amino acid sequences for entries named in this document (tags omitted).
UniProt Q9FIP9: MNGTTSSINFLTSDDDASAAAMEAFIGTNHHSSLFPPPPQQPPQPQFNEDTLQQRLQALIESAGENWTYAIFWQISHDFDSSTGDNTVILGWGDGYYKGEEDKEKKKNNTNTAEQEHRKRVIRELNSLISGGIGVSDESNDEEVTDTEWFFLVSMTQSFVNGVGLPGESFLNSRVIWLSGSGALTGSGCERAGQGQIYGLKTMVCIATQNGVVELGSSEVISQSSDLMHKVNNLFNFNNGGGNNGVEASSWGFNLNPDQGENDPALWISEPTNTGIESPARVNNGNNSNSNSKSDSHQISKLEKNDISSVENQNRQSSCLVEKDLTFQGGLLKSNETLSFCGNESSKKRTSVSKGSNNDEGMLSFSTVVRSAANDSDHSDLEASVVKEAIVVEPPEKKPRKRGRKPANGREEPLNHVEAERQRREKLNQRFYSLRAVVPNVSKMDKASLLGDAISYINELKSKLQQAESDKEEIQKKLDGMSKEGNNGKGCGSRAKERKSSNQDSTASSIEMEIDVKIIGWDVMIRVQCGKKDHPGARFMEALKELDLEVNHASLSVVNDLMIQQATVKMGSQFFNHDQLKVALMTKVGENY
UniProt O49687: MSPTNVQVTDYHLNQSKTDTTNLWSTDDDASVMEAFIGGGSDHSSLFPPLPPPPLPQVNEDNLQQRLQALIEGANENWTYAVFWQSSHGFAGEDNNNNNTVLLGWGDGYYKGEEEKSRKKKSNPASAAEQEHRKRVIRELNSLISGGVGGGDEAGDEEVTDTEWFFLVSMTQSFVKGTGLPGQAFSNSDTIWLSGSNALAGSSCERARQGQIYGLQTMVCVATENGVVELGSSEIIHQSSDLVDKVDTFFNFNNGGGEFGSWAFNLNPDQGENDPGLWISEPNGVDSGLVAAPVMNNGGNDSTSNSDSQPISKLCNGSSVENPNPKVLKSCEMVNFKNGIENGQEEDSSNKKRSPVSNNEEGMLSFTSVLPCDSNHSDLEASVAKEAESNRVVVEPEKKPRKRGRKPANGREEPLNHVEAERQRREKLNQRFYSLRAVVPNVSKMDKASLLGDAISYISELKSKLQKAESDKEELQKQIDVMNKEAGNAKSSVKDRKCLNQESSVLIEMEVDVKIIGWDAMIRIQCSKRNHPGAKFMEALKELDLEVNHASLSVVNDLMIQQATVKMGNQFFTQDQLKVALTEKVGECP

B1: MYB51 (protein, UniProt O49782 1-352)
chain: MVRTPCCKAELGLKKGAWTPEEDQKLLSYLNRHGEGGWRTLPEKAGLKRCGKSCRLRWANYLRPDIKRGEFTEDEERSIISLHALHGNKWSAIARGLPGRTDNEIKNYWNTHIKKRLIKKGIDPVTHKGITSGTDKSENLPEKQNVNLTTSDHDLDNDKAKKNNKNFGLSSASFLNKVANRFGKRINQSVLSEIIGSGGPLASTSHTTNTTTTSVSVDSESVKSTSSSFAPTSNLLCHGTVATTPVSSNFDVDGNVNLTCSSSTFSDSSVNNPLMYCDNFVGNNNVDDEDTIGFSTFLNDEDFMMLEESCVENTAFMKELTRFLHEDENDVVDVTPVYERQDLFDEIDNYFG
B2: MYB29 (G120-L222) WT (domain or fragment, UniProt Q9FLR1 120-222)
chain: GIDPVTHKPLAYDSNPDEQSQSGSISPKSLPPSSSKNVPEITSSDETPKYDASLSSKKRCFKRSSSTSKLLNKVAARASSMGTILGASIEGTLISSTPLSSCL
B3: MYB29 (G120-L222) K188A (domain or fragment, UniProt Q9FLR1 120-222)
chain: B2 chain with K69A
B4: MYB29 (G120-L222) L189A (domain or fragment, UniProt Q9FLR1 120-222)
chain: B2 chain with L70A
B5: MYB29 (G120-L222) K192A (domain or fragment, UniProt Q9FLR1 120-222)
chain: B2 chain with K73A
B6: MYB29 (G120-L222) V193A (domain or fragment, UniProt Q9FLR1 120-222)
chain: B2 chain with V74A
B7: MYB29 (G120-L222) A194G (domain or fragment, UniProt Q9FLR1 120-222)
chain: B2 chain with A75G
B8: MYB29 (G120-L222) A195G (domain or fragment, UniProt Q9FLR1 120-222)
chain: B2 chain with A76G
B9: MYB29 (G120-L222) R196A (domain or fragment, UniProt Q9FLR1 120-222)
chain: B2 chain with R77A
B10: MYB29 (G120-L222) L190V (domain or fragment, UniProt Q9FLR1 120-222)
chain: B2 chain with L71V
B11: MYB29 (G120-L222) L190I (domain or fragment, UniProt Q9FLR1 120-222)
chain: B2 chain with L71I
B12: MYB29 (G120-L222) L190F (domain or fragment, UniProt Q9FLR1 120-222)
chain: B2 chain with L71F
B13: MYB29 (G120-L222) N191Q (domain or fragment, UniProt Q9FLR1 120-222)
chain: B2 chain with N72Q
B14: MYB29 (G120-L222) N191L (domain or fragment, UniProt Q9FLR1 120-222)
chain: B2 chain with N72L
B15: MYB29 (G120-L222) K188E (domain or fragment, UniProt Q9FLR1 120-222)
chain: B2 chain with K69E
B16: MYB29 (G120-L222) K192E (domain or fragment, UniProt Q9FLR1 120-222)
chain: B2 chain with K73E
B17: MYB29 (G120-L222) R196E (domain or fragment, UniProt Q9FLR1 120-222)
chain: B2 chain with R77E
B18: MYB29 (G120-L222) K188E K192E R196E (domain or fragment, UniProt Q9FLR1 120-222)
chain: B2 chain with K69E, K73E, R77E
B19: MYB29 (G120-L222) L189T (domain or fragment, UniProt Q9FLR1 120-222)
chain: B2 chain with L70T
B20: MYB29 (G120-L222) V193T (domain or fragment, UniProt Q9FLR1 120-222)
chain: B2 chain with V74T
B21: MYB29 (G120-L222) L189T V193T (domain or fragment, UniProt Q9FLR1 120-222)
chain: B2 chain with L70T, V74T
B22: MYB21 (protein, UniProt Q9LK95 1-226)
chain: MEKRGGGSSGGSGSSAEAEVRKGPWTMEEDLILINYIANHGDGVWNSLAKSAGLKRTGKSCRLRWLNYLRPDVRRGNITPEEQLIIMELHAKWGNRWSKIAKHLPGRTDNEIKNFWRTRIQKYIKQSDVTTTSSVGSHHSSEINDQAASTSSHNVFCTQDQAMETYSPTPTSYQHTNMEFNYGNYSAAAVTATVDYPVPMTVDDQTGENYWGMDDIWSSMHLLNGN
B23: MYB113 (protein, UniProt Q9FNV9 1-246)
chain: MGESPKGLRKGTWTTEEDILLRQCIDKYGEGKWHRVPLRTGLNRCRKSCRLRWLNYLKPSIKRGKLCSDEVDLVLRLHKLLGNRWSLIAGRLPGRTANDVKNYWNTHLSKKHDERCCKTKMINKNITSHPTSSAQKIDVLKPRPRSFSDKNSCNDVNILPKVDVVPLHLGLNNNYVCESSITCNKDEQKDKLININLLDGDNMWWESLLEADVLGPEATETAKGVTLPLDFEQIWARFDEETLELN
B24: MYB29 (G120-L222) L190A (domain or fragment, UniProt Q9FLR1 120-222)
chain: B2 chain with L71A
B25: MYB29 (G120-L222) N191A (domain or fragment, UniProt Q9FLR1 120-222)
chain: B2 chain with N72A
B26: MYB29 (G120-L222) A194L (domain or fragment, UniProt Q9FLR1 120-222)
chain: B2 chain with A75L
B27: MYB29 non-MYB region (G120-I336) (domain or fragment, UniProt Q9FLR1 120-336)
chain: GIDPVTHKPLAYDSNPDEQSQSGSISPKSLPPSSSKNVPEITSSDETPKYDASLSSKKRCFKRSSSTSKLLNKVAARASSMGTILGASIEGTLISSTPLSSCLNDDFSETSQFQMEEFDPFYQSSEHIIDHMKEDISINNSEYDFSQFLEQFSNNEGEEADNTGGGYNQDLLMSDVSSTSVDEDEMMQNITGWSNYLLDHSDFNYDTSQDYDDKNFI
B28: MYB29 (S175-L222) (domain or fragment, UniProt Q9FLR1 175-222)
chain: SKKRCFKRSSSTSKLLNKVAARASSMGTILGASIEGTLISSTPLSSCL
B29: MYB29 DBD (residues M1-H126) (domain or fragment, UniProt Q9FLR1 1-126)
chain: MSRKPCCVGEGLKKGAWTAEEDKKLISYIHEHGEGGWRDIPQKAGLKRCGKSCRLRWANYLKPDIKRGEFSYEEEQIIIMLHASRGNKWSVIARHLPKRTDNEIKNYWNTHLKKLLIDKGIDPVTH

These binders were tested against MYC3 (Arabidopsis thaliana) (UniProt Q9FIP9) (assay: split-ubiquitin assay; chemically inducible dimerization split-ubiquitin system in yeast NMY51 TOR1-1 Δfpr1; bHLH as bait (pFKBP12), MYB as prey (pFRB); drop tests of three colonies on SD-AHLW, 2 days at 30°C; SD-AHLW+Rapa as positive control).
With B1 the binding was “binds”. With B2 the binding was “binds”. In the case of B3, the binding is reported as “binds”. In the case of B4, the binding is reported as “binds”. For B5, the binding was “binds”. In the case of B6, the binding is reported as “binds”. With B7 the binding was “binds”. For B8, the binding was “binds”. For B9, the binding was “binds”. For B10, the binding was “binds”. In the case of B11, the binding is reported as “binds”. For B12, the binding was “no binding”. In the case of B13, the binding is reported as “no binding”. In the case of B14, the binding is reported as “no binding”. B15 was tested, and the binding was “binds”. For B16, the binding was “binds”. For B17, the binding was “binds”. In the case of B18, the binding is reported as “binds”. B19 was tested, and the binding was “binds”. In the case of B20, the binding is reported as “binds”. In the case of B21, the binding is reported as “binds”. B22 was tested, and the binding was “no binding”. With B23 the binding was “no binding”. B24 was tested, and the binding was “no binding”. For B25, the binding was “no binding”. In the case of B26, the binding is reported as “no binding”.

Each binder was assayed against MYC4 (Arabidopsis thaliana) (UniProt O49687) in the same assay as above.
With B1 the binding was “binds”. In the case of B2, the binding is reported as “binds”. In the case of B3, the binding is reported as “binds”. For B4, the binding was “binds”. For B5, the binding was “binds”. With B6 the binding was “binds”. B7 was tested, and the binding was “binds”. B8 was tested, and the binding was “binds”. In the case of B27, the binding is reported as “binds”. In the case of B9, the binding is reported as “binds”. For B10, the binding was “binds”. For B11, the binding was “binds”. With B12 the binding was “binds weakly”. With B13 the binding was “binds weakly”. For B14, the binding was “binds weakly”. With B28 the binding was “binds”. In the case of B15, the binding is reported as “binds”. With B16 the binding was “binds”. For B17, the binding was “binds”. For B18, the binding was “binds”. With B19 the binding was “binds”. With B20 the binding was “binds”. For B21, the binding was “binds”. In the case of B22, the binding is reported as “no binding”. In the case of B23, the binding is reported as “no binding”. In the case of B24, the binding is reported as “no binding”. For B29, the binding was “no binding”. For B25, the binding was “no binding”. For B26, the binding was “no binding”.
